According to publication PMC6212790:
Some of the results follow. At the low end of the ranking, values are background and their order means little.

These sequences were tested against T1, GST-Rok (full length) (UniProt O34857) (assay: protein binding microarray). Conditions: Rok is a gene silencer of Bacillus subtilis; high values mean tight binding; most listed sequences are background and not binding sites; double strand, one strand shown.
T1 sequence: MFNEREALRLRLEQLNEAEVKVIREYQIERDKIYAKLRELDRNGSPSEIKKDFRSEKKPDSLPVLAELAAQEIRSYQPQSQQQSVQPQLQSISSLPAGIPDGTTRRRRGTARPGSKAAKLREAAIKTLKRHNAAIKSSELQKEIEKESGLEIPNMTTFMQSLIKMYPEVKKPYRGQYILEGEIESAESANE
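Note: rank score from −0.5 (least bound) to 0.5 (best bound).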

Sequence	binding signal [E-score]
AGGCGGTA	-0.0699
AGATGCGA	0.0795
CGGTAAAG	0.0396
AAGGATCG	-0.0211
AGCTACGG	0.132
CAGTCTGG	-0.185
GAACTACA	0.222
ACGTCACC	-0.25
AAATAAGG	0.151
TAAGCGTA	0.0518
CAGAAACA	0.146
GTGCAACA	-0.166
AGGGAAAC	-0.113
CGTGCGTA	-0.0733
ATAAGGTC	-0.137
CGGGTAAC	-0.0214
CTTAGAAA	-0.0462
CAAATCTG	-0.00951
ACGCTTCG	-0.102
AGCGCCTA	-0.0798
AAACAGCA	0.0272
AGCGTTAA	0.0101

Sequence	binding signal [E-score]
CAGCGTAG	-0.23
ACCCACGA	-0.0692
AGTCCCGC	-0.306
AGGGGATG	-0.359
AAAGCGAA	0.00312
TATAGAAA	0.363
AATATACG	0.268
ACATGACG	0.213
ATTCATCA	0.111
GATAGTGA	0.162
AAGTCGGC	-0.0992
AAGCCAGA	-0.169
AAAGAAAG	0.132
AAAGAAGT	-0.0186
GACATCAA	0.0033
AATTACGA	0.266
ATTATAAT	0.328
CCAGGAGC	-0.14
AGCTGACC	-0.227
ACTGAGAG	-0.12
AGCCTGAA	-0.227
CCATACGC	0.0524

Sequence	binding signal [E-score]
CGTCTTGC	0.0521
ATGGGGAA	-0.053
AGATCGCT	0.0961
TGCTGTAA	0.133
AAATCGCT	0.19
GGATCCCC	-0.384
AACTGGCC	-0.00391
ATCAAACA	0.104
CTCGTACA	-0.0435
AGATTGGA	0.177
GATAAGTA	0.24
CAGCCGTC	-0.33
AGGTACCC	-0.00763
TGCGTGAA	-0.136
AGCGCGCC	-0.239
CATATCGA	0.0224
GACGTCGC	-0.246
AACGCCTG	-0.315
GTCTCTTA	-0.194
CCGGCAGC	-0.14
AATACACT	0.186
CAGTTCGC	-0.231

Sequence	binding signal [E-score]
ATCTGCTA	0.228
CACAGGCC	-0.0785
AAATCGCC	0.0434
GGATGTAC	0.153
CTTTGCCC	-0.136
ACTCGACG	-0.0298
CTGAAAGA	0.0747
ATTTAAAA	0.0774
GACCTTAC	-0.0577
AAGTCTCA	-0.13
AATTGTTC	0.285
TAGGGGCA	-0.0733
ACGGAGGC	-0.345
AAACCTTA	-0.0224
CAACTGAG	0.013
CCTCAATC	-0.128
ACCCGACA	-0.182
CCATTCGA	0.0211
CGGTGCAG	-0.127
CCTATGAC	0.0186
